# Results reported in PubChem BioAssay AID720506 (National Center for Advancing Translational Sciences (NCATS), 2013).
# About 95 (4%) of roughly 2,300 compounds were called active. Inconclusive results, whose numbers are uncertain, are shown with a selection of clear calls. Calls follow the shape of the dose curve; as a rule, active = well fitted activation curve with a large enough effect; inconclusive = small, poorly fitted or top-dose-only effect; inactive = flat fitted curve, though single readings scatter. Potencies beside an inconclusive call are fits to weak or partial responses and may not hold up.
# Target: D(3) dopamine receptor (Homo sapiens) (UniProt P35462)
# Chain of UniProt P35462 (P35462 whole entry, looked up): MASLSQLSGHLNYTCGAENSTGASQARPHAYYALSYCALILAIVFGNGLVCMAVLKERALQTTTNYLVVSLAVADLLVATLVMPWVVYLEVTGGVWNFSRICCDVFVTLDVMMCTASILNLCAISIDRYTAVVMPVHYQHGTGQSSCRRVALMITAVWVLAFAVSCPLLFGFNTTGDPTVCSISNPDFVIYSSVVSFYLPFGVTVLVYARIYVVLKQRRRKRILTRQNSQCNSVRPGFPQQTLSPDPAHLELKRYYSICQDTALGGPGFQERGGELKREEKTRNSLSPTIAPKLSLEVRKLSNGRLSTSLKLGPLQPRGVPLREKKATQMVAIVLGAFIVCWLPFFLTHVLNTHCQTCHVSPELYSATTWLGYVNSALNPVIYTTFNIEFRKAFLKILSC
# Assay: qHTS of D3 Dopamine Receptor Agonist: D3 Dopamine Receptor B-arrestin Agonist Confirmatory Assay; also: nearly all actives have a fitted effect of over 70% in size
# Conditions: DiscoveRx D3 beta-arrestin cells, luminescence, 90 min; series mostly up to 76.9 µM
# In short: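 Cells from the DiscoveRx D3 line were treated with library compounds, dopamine serving as control, for 90 minutes at 37 degrees C, then developed with the DiscoveRx reagent at room temperature before luminescence was recorded.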
# Potency is read from the fitted curve at half-maximal effect; tags tell the direction and shape of the fitted curve.
row,Structure (SMILES),Potency
1,CC(=O)N1CCC(N2CCN(c3ccccc3F)CC2)CC1,"inconclusive: 2.51 µM [activator, full curve]"
2,O=C(c1cccs1)N1CCN(Cc2ccccc2)CC1,"inconclusive: 1.41 µM [activator, full curve]"
3,CCCCCCCC/C=C\CCCCCCCC(=O)NCCc1ccc(O)c(O)c1,active: 3.98 µM
4,O=C1C2CC=CCC2C(=O)N1c1ccc(N2CCN(c3ccccn3)CC2)c([N+](=O)[O-])c1 (stereo not drawn),"inconclusive: 44.7 µM [activator, partial curve]"
5,Nc1nc(N)nc(-c2ccc(Cl)c(Cl)c2)n1,inactive
6,CC(=O)c1cc2c(O)c(O)ccc2o1,"inconclusive: 35.5 µM [activator, partial curve, poor fit]"
7,O=C(NCCS(=O)(=O)N1CCN(c2ccccc2)CC1)c1ccccc1F,inactive
8,COc1cc(OC)cc(-c2c(-c3cccs3)c3cc(-c4ccc(SC)cc4)ccc3n2C)c1,inactive
9,CC(=O)c1ccc(OC(=O)C2CSC3(C)CCC(=O)N23)cc1 (stereo not drawn),inactive
10,O=C(c1ccc(N2CCCC2=O)cc1)N1CCN(c2ccccc2F)CC1,"inconclusive: 15.8 µM [activator, full curve, poor fit]"
11,CCOC(=O)c1ccc(NC(=O)CN2CCN(C(=O)c3ccco3)CC2)cc1,active: 22.4 µM
12,O=C(CCN1C(=O)COc2ccccc21)NCCN1CCN(c2ccccc2F)CC1,inactive
13,Cc1[nH]n(-c2ccc(F)cc2)c(=O)c1/C=N/c1sc2c(c1C#N)CCCC2,"inconclusive: 35.5 µM [activator, partial curve, poor fit]"
14,CC(C)(C)c1ccc(OCC(O)CN2CCN(c3ccccn3)CC2)cc1 (stereo not drawn),"inconclusive: 1.12 µM [activator, full curve]"
15,Fc1ccccc1N1CCN(Cc2cccnc2)CC1,"inconclusive: 0.501 µM [activator, full curve, poor fit]"
16,O=C(CCc1ccc(O)c(O)c1)NNC(=S)NCCc1ccccc1,"inconclusive: 10 µM [activator, full curve]"
17,CC(=O)c1ccc(NC(=O)CN2CCN(c3ncccn3)CC2)cc1,"inconclusive: 39.8 µM [activator, partial curve, poor fit]"
18,O=C(CC1NCCc2ccccc21)Nc1ccc(Oc2ccccc2)cc1 (stereo not drawn),inactive
19,CN(C)S(=O)(=O)c1cc(NC(=O)CN2CCN(c3ccccc3F)CC2)ccc1Cl,"inconclusive: 1.58 µM [activator, full curve]"
20,O=C(c1ccco1)N1CCN(Cc2cccc3ccccc23)CC1,"inconclusive: 25.1 µM [activator, partial curve]"
21,Nc1nc(CN2CCN(c3ccccc3)CC2)nc(Nc2ccc(Cl)cc2)n1,"inconclusive: 35.5 µM [activator, partial curve, poor fit]"
22,C=CCc1cc(C)ccc1OCC(O)CN1CCN(c2ccccc2)CC1 (stereo not drawn),active: 0.631 µM
23,COc1cccc(CN2CCN(c3ncccn3)CC2)c1,"inconclusive: 1.58 µM [activator, full curve]"

row,Structure (SMILES),Potency
1,COc1ccc(Oc2cc(C)c3ccccc3n2)cc1,"inconclusive: 39.8 µM [activator, single point]"
2,O=S(=O)(c1ccc(Br)s1)N1CCN(CCOc2ccccc2)CC1,"inconclusive: 0.282 µM [activator, full curve, poor fit]"
3,O=C(c1cccs1)N1CCN(Cc2ccccn2)CC1,"inconclusive: 14.1 µM [activator, partial curve]"
4,CCCCC(=O)Nc1ccc2c(c1)nc(CCN1CCN(c3ccccn3)CC1)n2C,"inconclusive: 1.41 µM [activator, full curve]"
5,c1ccc(COc2ccc(CN3CCN(c4ccccn4)CC3)cc2)cc1,"inconclusive: 0.794 µM [activator, full curve]"
6,OC(COCC1COc2ccccc2O1)CN1CCN(c2ccccc2)CC1 (stereo not drawn),"inconclusive: 0.891 µM [activator, full curve]"
7,CC(C)(C)NC(=O)c1cc2c(ccc3ccccc32)oc1=O,"inconclusive: 17.8 µM [activator, full curve, poor fit]"
8,O=C(CCN1CCN(c2ccccc2)CC1)Nc1ccc(OCc2ccccc2)cc1,"inconclusive: 0.891 µM [activator, full curve]"
9,O=C(Nc1ccc(NC(=O)c2ccc([N+](=O)[O-])cc2[N+](=O)[O-])cc1)c1ccco1,"inconclusive: 50.1 µM [activator, partial curve, poor fit]"
10,C[C@]12CCC(O)CC1CCC1C2CC[C@]2(C)C(c3cc(C(F)(F)F)n[nH]3)CCC12 (stereo partly drawn),"inconclusive: 8.91 µM [activator, full curve]"
11,O=C(NCC(c1ccco1)N1CCN(c2ccccc2F)CC1)C1CCCCC1 (stereo not drawn),"inconclusive: 39.8 µM [activator, partial curve, poor fit]"
12,OCCN1CCN(CCOc2cccc(Cl)c2)CC1,"inconclusive: 0.562 µM [activator, full curve, poor fit]"
13,N#Cc1c(/N=C/c2ccc(-c3ccccc3C(=O)O)o2)sc2c1CCCC2,"inconclusive: 126 µM [activator, single point]"
14,Cc1ccc(/C=N/c2sc3c(c2C#N)CCCCC3)o1,"inconclusive: 35.5 µM [activator, partial curve, poor fit]"
15,C=CCN=c1scc(-c2ccco2)n1/N=C/c1ccc(O)c(O)c1O,active: 39.8 µM
16,COc1cccc(CN2CCN(C(=O)c3cccs3)CC2)c1OC,"inconclusive: 14.1 µM [activator, full curve]"
17,CCOC(=O)N1CCC(N2CCN(c3ccccc3)CC2)CC1,"inconclusive: 15.8 µM [activator, partial curve, poor fit]"
18,OCC1(Cc2ccccc2)CCN(Cc2cc3ccccc3o2)CC1,"inconclusive: 8.91 µM [activator, partial curve, poor fit]"
19,CC(=O)Nc1ccc(OCC(O)CN2CCN(c3cccc(Cl)c3)CC2)cc1 (stereo not drawn),"inconclusive: 0.224 µM [activator, full curve]"
20,CCOC(=O)N1CCC(Nc2c(NCCN3CCN(c4ccccc4F)CC3)c(=O)c2=O)CC1,"inconclusive: 0.562 µM [activator, full curve, poor fit]"
21,O=S(=O)(c1ccc(OCC(O)CN2CCN(c3ccccc3O)CC2)cc1)N1CCOCC1 (stereo not drawn),"inconclusive: 1.26 µM [activator, full curve]"
22,Cc1ccsc1CN1CCN(c2ccccn2)CC1,"inconclusive: 12.6 µM [activator, partial curve]"
23,Cc1ccc2c(c1)[C@H]1[C@H](CO2)[C@H](c2ccccc2)[C@]2(C)C(=O)N(Cc3ccc(Cl)cc3)CC(=O)N12,inactive

row,Structure (SMILES),Potency
1,N#CCC(=O)Nc1ccc(C(=O)NNC(=O)CCN2CCN(c3ccccc3)CC2)cc1,"inconclusive: 0.708 µM [activator, full curve, poor fit]"
2,CC(=O)Nc1ccc(/C=N/NC(=O)CCN2CCN(c3ccccc3)CC2)cc1,"inconclusive: 22.4 µM [activator, partial curve, poor fit]"
3,CCOC(=O)N1CCN(C/C(C)=C/c2ccccc2)CC1,inactive
4,O=C(c1ccco1)N1CCN(Cc2cccc(C(F)(F)F)c2)CC1,"inconclusive: 28.2 µM [activator, full curve]"
5,COc1cccc(CN2CCN(Cc3cc(OC)c(OC)c(OC)c3)CC2)c1OC,inactive
6,Cc1cccc(C(=O)NNC(=S)NC(=O)c2cccs2)c1,inactive
7,O=C(CN1CCN(C(=O)c2ccco2)CC1)Nc1ccc(Cl)c(S(=O)(=O)N2CCOCC2)c1,"inconclusive: 39.8 µM [activator, single point]"
8,COc1ccc(OCC(O)CN2CCN(c3ncccn3)CC2)cc1 (stereo not drawn),"inconclusive: 12.6 µM [activator, partial curve]"
9,OC1(Cc2cc(-c3ccccc3)no2)CCN(CCCc2ccccc2)CC1,"inconclusive: 3.16 µM [activator, partial curve, poor fit]"
10,O=C(COc1ccccc1Cl)NNC(=O)Cn1[nH]c(=O)c2ccccc2c1=O,inactive
11,O=C(c1cccs1)N1CCC(N2CCN(c3ccccc3)CC2)CC1,active: 7.08 µM
12,CCc1cc(C(=O)NNC(=O)CCN2CCN(c3ccccc3)CC2)sc1C,"inconclusive: 0.355 µM [activator, full curve, poor fit]"
13,CCOC(=O)C(NCCc1ccccc1)(NC(=O)CC)C(F)(F)F (stereo not drawn),inactive
14,CCOC(=O)c1c(NC(=O)C(C)Sc2cccc[n+]2[O-])sc2c1CCN(Cc1ccccc1)C2 (stereo not drawn),inactive
15,COC(=O)Nc1ncc(CN2CCC(c3ccccc3)CC2)s1,inactive
16,COC(c1ccccc1)c1nnc(CCC(=O)N2CCN(CCOc3ccccc3)CC2)o1 (stereo not drawn),active: 2.82 µM
17,COc1cccc(OC)c1OCC(O)CN1CCN(c2ccccc2)CC1 (stereo not drawn),"inconclusive: 0.1 µM [activator, full curve, poor fit]"
18,CN(CCOC(=O)c1cccc(Br)c1)C(C)(C)C,inactive
19,Cc1cc(=O)[nH]c2c(C)cc(S(=O)(=O)NCc3ccccc3)cc12,inactive
20,OC(COc1c(F)cc(Br)cc1F)CN1CCN(c2ccc(F)cc2)CC1 (stereo not drawn),"inconclusive: 14.1 µM [activator, partial curve]"
21,CC(=O)c1ccc(NC(=O)C(C)N2CCN(C/C=C/c3ccccc3)CC2)cc1 (stereo not drawn),"inconclusive: 3.55 µM [activator, full curve, poor fit]"
22,Fc1ccc(F)c(CN2CCN(c3ncccn3)CC2)c1,"inconclusive: 2 µM [activator, full curve]"
